The list shows a part of the results.
Test system: Pseudomonas aeruginosa PA14 dppA1-A5 penta deletion mutant
Assay: respiration area under curve with compound as sole nitrogen source, 24 h (OmniLog AUC (arbitrary units)); higher = more respiration / better utilisation as nitrogen source, active = 2000 or more; extreme values may be limits of the assay
Conditions: plate: PM6
Method: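 Biolog Phenotype MicroArray plates PM6-PM8: each di/tripeptide is the sole nitrogen source. Tetrazolium reduction was read in the OmniLog for 24 h at 37°C and summarised as area under the respiration curve (arbitrary units). Values below 2000 count as no respiration.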

| Compound | respiration area under curve |
| --- | --- |
| NCC(=O)N[C@@H](CCCN=C(N)N)C(=O)O | active: 8670 |
| NC(N)=NCCC[C@H](N)C(=O)N[C@@H](CCC(=O)O)C(=O)O | active: 9880 |
| C[C@H](N)C(=O)N1CCC[C@H]1C(=O)O | inactive: 889 |
| CC(C)[C@H](NC(=O)CN)C(=O)O | inactive: 413 |
| CSCC[C@H](NC(=O)[C@@H](N)CCCN=C(N)N)C(=O)O | active: 10700 |
| N[C@@H](CC(=O)O)C(=O)N[C@@H](CC(=O)O)C(=O)O | inactive: 130 |

Same assay, conditions: plate: PM7

| Compound | respiration area under curve |
| --- | --- |
| NC(Cc1c[nH]c2ccccc12)C(=O)NC(Cc1ccccc1)C(=O)O (stereo not given) | inactive: 704 |
| CSCC[C@H](N)C(=O)N[C@H](C(=O)O)C(C)C | active: 2020 |
| CC(C)C[C@H](N)C(=O)N[C@@H](CO)C(=O)O | active: 12700 |
| N[C@@H](Cc1ccc(O)cc1)C(=O)N[C@@H](Cc1ccc(O)cc1)C(=O)O | active: 7100 |
| NC(=O)CC[C@H](NC(=O)[C@@H](N)Cc1ccc(O)cc1)C(=O)O | active: 11500 |
| C[C@H](NC(=O)[C@@H]1CCCN1)C(=O)O | inactive: 630 |
| CSCC[C@H](NC(=O)[C@@H](N)CO)C(=O)O | inactive: 322 |
| O=C(O)CC(NC(=O)C1CCCN1)C(=O)O (stereo not given) | inactive: 2 |
| NC(=O)CC[C@H](NC(=O)[C@@H]1CCCN1)C(=O)O | inactive: 1980 |
| N[C@@H](Cc1ccc(O)cc1)C(=O)N[C@@H](Cc1c[nH]c2ccccc12)C(=O)O | active: 4130 |
| N[C@@H](Cc1ccccc1)C(=O)N1CCC[C@H]1C(=O)O | inactive: 0 |
| N[C@@H](Cc1ccccc1)C(=O)N[C@@H](Cc1c[nH]c2ccccc12)C(=O)O | inactive: 732 |
| CC(C)C[C@H](N)C(=O)N[C@H](C(=O)O)C(C)C | active: 9740 |
| CSCC[C@H](N)C(=O)N1CCC[C@H]1C(=O)O | inactive: 31.9 |
| CSCC[C@H](N)C(=O)NCC(=O)O | inactive: 732 |
| N[C@@H](Cc1ccccc1)C(=O)NCC(=O)O | active: 2400 |
| CC(C)[C@H](N)C(=O)NCC(=O)O | inactive: 1070 |
| CSCC[C@H](NC(=O)[C@@H](N)[C@@H](C)O)C(=O)O | inactive: 1260 |
| N[C@@H](CO)C(=O)N[C@@H](Cc1ccc(O)cc1)C(=O)O | active: 2440 |
| CSCC[C@H](N)C(=O)N[C@@H](Cc1c[nH]c2ccccc12)C(=O)O | active: 2830 |
| CC(C)[C@H](NC(=O)[C@@H](N)CO)C(=O)O | active: 4040 |

Same assay, conditions: plate: PM8

| Compound | respiration area under curve |
| --- | --- |
| C[C@@H](O)[C@H](N)C(=O)N[C@@H](CCC(N)=O)C(=O)O | inactive: 1050 |
| CC(C)[C@H](N)C(=O)N1CCC[C@H]1C(=O)O | inactive: 13.7 |
| CC(C)C[C@H](N)C(=O)N[C@@H](CC(N)=O)C(=O)O | active: 11000 |
| N[C@@H](Cc1ccccc1)C(=O)N[C@@H](CC(=O)O)C(=O)O | inactive: 0 |
| C[C@@H](N)C(=O)NCC(=O)NCC(=O)O | inactive: 37.9 |
| NCC(=O)N[C@@H](CC(=O)O)C(=O)O | inactive: 0 |
| NC(=O)CC[C@H](NC(=O)[C@@H](N)CC(=O)O)C(=O)O | inactive: 324 |
| CC(C)C(N)C(=O)NC(CO)C(=O)O (stereo not given) | inactive: 1090 |
| CSCC[C@H](N)C(=O)N[C@H](C(=O)O)[C@@H](C)O | inactive: 147 |
| NCC(=O)N[C@H](CC(=O)O)C(=O)O | inactive: 0 |
| C[C@H](NC(=O)[C@@H](N)CCC(=O)O)C(=O)O | inactive: 9.14 |
| CC[C@H](C)[C@H](NC(=O)CNC(=O)CN)C(=O)O | inactive: 29.1 |
| CC(C)[C@H](N)C(=O)N[C@@H](C)C(=O)O | inactive: 355 |
